Measured values: article PMC11342335 (2024)
Read-outs that look alike come from different tables or passages of the source.

B1: G11-ABD (His6-G11-G4S-ABD035) (designed binder)
chain: VDNKFNKENAGARGEIIFLPNLNKNQGWAFKHSLMDDPSQSANLLAEAKKLNDAQAPKGGGGSLAEAKVLANRELDKYGVSDFYKRLINKAKTVEGVEALKLHILAALP
B2: F6-ABD (His6-F6-G4S-ABD035) (designed binder)
chain: VDNKFNKENVWARGEITFLPNLNSKQHQAFHMSLDDDPSQSANLLAEAKKLNDAQAPK
B3: A3-ABD (His6-A3-G4S-ABD035) (designed binder)
chain: VDNKFNKEIEEAGAEIIQLPNLNRWQKGAFIVSLKDDPSQSANLLAEAKKLNDAQAPK
B4: C1-ABD (His6-C1-G4S-ABD035) (designed binder)
chain: VDNKFNKERYAAKGEITYLPNLNNKQHMAFDMSLRDDPSQSANLLAEAKKLNDAQAPK

What was measured:
Test in all cases: SPR
[1] = target: T1, human sortilin (R&D Systems, 3154-ST) (human, UniProt Q99523 78-755)
[2] = target: T2, murine sortilin (R&D Systems, 2934-ST) (murine, UniProt Q6PHU5 74-754)
T2 chain: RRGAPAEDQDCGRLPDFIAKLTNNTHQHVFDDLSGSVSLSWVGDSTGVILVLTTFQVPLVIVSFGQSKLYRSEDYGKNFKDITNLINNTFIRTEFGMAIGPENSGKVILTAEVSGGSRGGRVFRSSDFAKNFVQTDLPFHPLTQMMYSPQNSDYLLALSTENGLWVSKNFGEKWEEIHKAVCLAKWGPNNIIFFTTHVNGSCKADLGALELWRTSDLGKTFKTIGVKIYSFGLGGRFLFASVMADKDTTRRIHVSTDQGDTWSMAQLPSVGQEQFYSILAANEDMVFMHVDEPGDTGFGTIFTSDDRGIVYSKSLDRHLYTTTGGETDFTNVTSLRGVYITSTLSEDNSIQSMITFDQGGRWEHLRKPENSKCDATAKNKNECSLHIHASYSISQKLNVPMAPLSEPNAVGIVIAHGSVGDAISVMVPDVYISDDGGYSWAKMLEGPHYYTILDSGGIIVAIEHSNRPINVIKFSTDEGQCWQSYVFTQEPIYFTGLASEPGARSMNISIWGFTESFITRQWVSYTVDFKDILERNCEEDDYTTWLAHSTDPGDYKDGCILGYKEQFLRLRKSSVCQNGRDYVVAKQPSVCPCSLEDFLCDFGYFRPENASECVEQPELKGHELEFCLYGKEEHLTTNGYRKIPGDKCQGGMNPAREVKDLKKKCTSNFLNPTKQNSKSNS

[3] = target: T1, human sortilin (R&D Systems, 3154-ST); remark: listed apart in the source

| Binder | Kd [1] | Kd [2] | Kd [3] |
| --- | --- | --- | --- |
| B1 | 37 nM | 57 nM | 38 nM |
| B2 | 102 nM | 48 nM | – |
| B3 | 118 nM | – | – |
| B4 | 155 nM | 76 nM | – |
